Measured values: patent US9353185B2, “Antibodies” (Affitech Research AS, priority 2010, dated 2016)

What was measured:
CXCR4+ Ramos cell line = assay: Induction of apoptosis (Annexin V / PI staining); assay type: cell-based, human; conditions: IgG1 0.08 to 10 μg/ml, 48 hrs, versus background level
Method: The ability of anti-CXCR4 antibodies to induce apoptosis was assessed on the CXCR4^+ Ramos cell line.
Ramos cells were cultivated as described above.
The Ramos cells were harvested by centrifugation, washed twice in RPMI-1640 culture medium with 10% FCS and resuspended in RPMI-1640 medium with 10% FCS to a density of 3×10^5 cells/ml. The cell suspension (250 μl) was mixed with the same volume of either antibody to be tested in dilutions (final concentration of 0.08 to 10 μg/ml) or staurosporin (25 nM) in wells of a 24-well plate and incubated at 37° C. for 48 hrs. The cells were collected by centrifugation and washed in Annexin V Binding Buffer (10 mM Hepes, 140 mM NaCl, 2.5 mM CaCl2, 0.2% BSA, pH 7.4). The cells were harvested again and resuspended in 300 μl Annexin V Binding Buffer. Both FITC-conjugated Annexin V and propidium iodide (PI) were mixed with 240 μl cell suspension resulting in a final concentration of PI of 0.2 μg/ml. The samples were analyzed immediately after adding the ligand using the 515-545 nm and 610/20 nm band pass filters on a FACSCanto II flow cytometer (BD Biosciences). The apoptotic cells were defined as Annexin V positive/PI negative and the dead cells were defined as PI positive.

Ramos cells = assay: Complement dependent cytotoxicity (CDC) in presence of human serum, calcein-AM release; assay type: cell-based; conditions: IgG
Method: To test whether the anti-CXCR41 IgGs described herein are able to mediate complement dependent cytotoxicity, CDC experiments have been performed using Ramos cells which are derived from Burkitt's B-cell lymphoma and have constitutive expression of CXCR4.
Ramos cells were maintained as described above.
The Ramos cells, were sedimented by centrifugation and washed twice in RPMI-1640 culture medium. 2.5×10^6 cells/ml was mixed with calcein-AM (Invitrogen) to a final concentration of 10 μM and then incubated at 37° C. for 30 min. The cells were washed three times in RPMI-1640 with 10% FCS and the cell density was adjusted to 4×10^6 cells/mL. A 25 μl aliquot of labelled target cells and 25 μl of human serum were mixed in the wells in a 96-well microtiter plate. Dilutions of the antibodies (all in IgG format) were added to the same wells in 50 μl volume thus resulting in a final antibody concentration ranging from 5×10^−5 to 5×10^4 ng/ml. Twenty μl 0.9% Triton-X100 was added to control wells to achieve complete lysis of the target cells (maximal lysis defining 100%). The microtiter plate was incubated for 1 hr at 37° C. One hundred μl RPMI-1640 with 10% FCS was added to all wells followed by centrifugation and transfer of 100 μl supernatant of each sample to a black microtiter plate. The fluorescence (excitation at 488 nm, emission at 518 nm) was recorded using a TECAN M200 plate reader. Each experiment was carried out in quadruplicates. The fluorescence intensity of the samples without antibodies was subtracted as a background and the percentage of specific lysis in samples with antibodies was calculated. The dose-response curves were computed by nonlinear regression analysis and a three-parameter fit model using Prism software (GraphPad).

[1] = biological target: T1, monkey (Macaca mulatta) CXCR4 (Macaca mulatta, UniProt P79394); assay: Species cross reactivity: binding to HEK-293 cells transiently expressing monkey CXCR4; conditions: scFv level, transiently transfected HEK-293 cells
T1 construct: expressed in transfected cells; host or cells: HEK-293 (HEK293T/17), transient transfection with Fugene
Method: (§1) The antibody candidates were tested on scFv level for their ability to cross-react with CXCR4 from monkey and mouse.
(§2) HEK293T/17 cells were maintained as described above.
(§3) FACS-binding analyses (EasyCyte) were performed using HEK-293 cells transiently transfected with plasmids encoding either, mouse (Gene bank accession number BC031665) or monkey (Macaca mulatta) CXCR4 (NCBI Accession number NP_001036110). Two experiments were performed, one using α-cMyc and PE-labelled goat anti-mouse IgG antibody, the second using a directly conjugated RPE-c-Myc antibody for detection. In addition, cross-reactivity on IgG level was analysed. In the latter case, antibody binding was detected with PE-conjugated goat anti-human IgG antibody.

CXCR4 = biological target: T2, CXCR4 (Homo sapiens, UniProt P61073); assay: Inhibition of SDF-1α ligand induced Ca++ flux in CCRF-CEM cells (Fluo-4); assay type: cell-based; conditions: CCRF-CEM cells
T2 construct: CRL-1596 (Ramos); host or cells: Ramos, Jurkat 6E-1, CCRF-CEM
Method: 9N10 was only tested on IgG level. The experiment was performed using the naturally CXCR4^+ positive cell line CCRF-CEM.
The CCRF-CEM target cells, were harvested by centrifugation and washed twice in RPMI-1640 culture medium. Either 1 ml with 2.5×10^6 cells (for IgGs) or 10 ml with 2.5×10^7 cells (for scFvs) were mixed with Fluo-4-AM (acetoxymethyl ester; Invitrogen), Pluronic F-127 (Invitrogen) and Probenecid to final concentrations of 1 μM, 0.02% and 1 mM respectively. The cells were incubated at 37° C. for 60 mM on a vertical rotating wheel (7 rpm). All subsequent steps were done in the presence of 1 mM Probenecid. The cells were washed twice in RPMI-1640 with 10% fetal calf serum (FCS), once in an assay buffer (145 mM NaCl, 4 mM KCl, 1 mM NaH2PO4, 0.8 mM MgCl2, 25 mM Hepes, 22 mM glucose) and then resuspended to a final density of 4×10^6 cells/ml. Equal volumes of cells, assay buffer with or without antibodies and ligand (SDF-1α) were mixed. The first two components (cells and antibodies) were pre-incubated for 15 min prior to adding the ligand, SDF-1α (final concentration 50 ng/ml). The final concentrations of antibodies were 10 μg/ml or 100 μg/ml for IgGs and 4 μg/ml for scFvs. The samples were immediately analyzed using the 515-545 nm band pass filter on a FACSCanto II (BD Biosciences). The areas under the curves (AUC) were integrated using software Prism (GraphPad) and plotted as percentage of AUC for maximal stimulation with SDF-1α alone.
The experiment was performed as described above, but the antibodies were used in a titration series with concentrations of 100, 20, 4, 0.8, 0.16, 0.032, 0.064 and 0.00128 μg/ml.

mouse CXCR4 = biological target: T3, mouse CXCR4 (Mus musculus, UniProt P70658); assay: Species cross reactivity: binding to HEK-293 cells transiently expressing mouse CXCR4; conditions: scFv level; transiently transfected HEK-293 cells
T3 construct: expressed in transfected cells; host or cells: HEK-293 (HEK293T/17), transient transfection with Fugene
Method: as §1, §2, §3

T2 sequence (P61073 whole entry): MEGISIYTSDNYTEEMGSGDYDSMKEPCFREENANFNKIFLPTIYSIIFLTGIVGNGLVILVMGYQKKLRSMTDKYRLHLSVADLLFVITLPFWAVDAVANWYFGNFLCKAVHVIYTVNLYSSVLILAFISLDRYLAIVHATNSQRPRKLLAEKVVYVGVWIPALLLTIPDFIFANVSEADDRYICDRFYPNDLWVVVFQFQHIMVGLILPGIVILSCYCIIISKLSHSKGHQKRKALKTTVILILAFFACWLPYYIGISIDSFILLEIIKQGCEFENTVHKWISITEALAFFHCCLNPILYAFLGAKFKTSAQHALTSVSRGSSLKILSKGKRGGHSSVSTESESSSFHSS
T1 sequence (P79394 whole entry): as the sequence (P61073 whole entry) above, with M24I, N35H, K38R, R146K, N176S, V214D counted along it
T3 sequence (P70658 whole entry): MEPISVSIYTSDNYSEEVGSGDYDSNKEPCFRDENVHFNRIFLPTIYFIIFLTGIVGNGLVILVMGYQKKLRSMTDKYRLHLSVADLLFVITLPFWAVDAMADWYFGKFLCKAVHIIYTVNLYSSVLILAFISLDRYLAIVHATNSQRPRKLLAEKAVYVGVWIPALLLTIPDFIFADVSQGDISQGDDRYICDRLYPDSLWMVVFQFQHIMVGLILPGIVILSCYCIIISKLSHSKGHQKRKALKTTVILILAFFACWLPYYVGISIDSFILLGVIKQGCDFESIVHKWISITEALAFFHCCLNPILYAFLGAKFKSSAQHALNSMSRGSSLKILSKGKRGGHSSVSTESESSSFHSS

B1: C-1I24: human anti-CXCR4 antibody; scFv SEQ ID NO: 57; IgG1/lambda heavy chain SEQ ID NO: 116, light chain SEQ ID NO: 117 (antibody)
heavy: QVQLVQSGGGVVQPGRSLRLSCAASGFTFSSYGMHWVRQAPGKGLEWVAVISYDGSNKYYADSVKGRFTISRDNSKNTLYLQMNSLRAEDTAVYYCAKDLPITRGTGADYWGQGTLVTVSS[human IgG1 constant region left out]
light: QSVLIQPASVSGSPGQSITISCTGTSSDVGGYNYVSWYQQHPGKAPRLMIYDVTSRPSGVSNRFSGSKSGNTASLTISGLQAEDEADYYCSSYAGSYSVVFGGGTKVTVLGQPKAAPSVTLFPPSSEELQANKATLVCLISDFYPGAVTVAWKADSSPVKAGVETTTPSKQSNNKYAASSYLSLTPEQWKSHRSYSCQVTHEGSTVEKTVAPTECS
modifications: antibody sequence
CXCR4+ Ramos cell line
  induction of apoptosis (Annexin V positive/PI negative cells): no apoptosis was induced above the background level
Ramos cells
  CDC activity against Ramos cells (words): able to induce CDC; also recorded: superior CDC activity
Ramos cells; Ramos cells, 1 hr
  maximum killing CDC: 100%
Ramos cells; listed as C1I24
  CDC activity against Ramos cells (words): good ability to induce CDC
[1]
  cross-reactivity with monkey CXCR4: good cross-reactivity
[1]; listed as C1I24
  cross-reactivity with monkey CXCR4: bind to both human CXCR4 and monkey CXCR4
CXCR4; IgG 10 or 100 μg/ml (9N10: 1 or 10 μg/ml)
  inhibition of SDF-1α-induced signalling, IgG level: inhibition of SDF-1α-induced signalling was demonstrated
CXCR4; scFv 4 μg/ml
  antagonistic activity on SDF-1α induced Ca++ flux, scFv level: some antagonistic effect
CXCR4; scFv and/or IgG
  antagonistic effect on Ca++ signalling induced by SDF1α binding to CXCR4 (overall): capable of inhibiting ligand induced signalling via CXCR4
Mouse CXCR4
  cross-reactivity with mouse CXCR4: intermediate

Entries after “also recorded” stand apart in the source; their conditions may differ.
